Like-named read-outs stand apart in the source and are kept apart here.

Test [1] addresses T1, main 3CL protease of SARS-CoV-2 (Severe acute respiratory syndrome coronavirus 2, UniProt P0DTD1). The experiment in a line: Inhibition of enzymatic activity of the main 3CL protease in vitro. In kind it is biochemical.
In test [2] the target is T1, main 3CL protease of SARS-CoV-2. The experiment in a line: Reversibility of inhibition of the main 3CL protease (dilution and filtration through 3 kDa membrane). The note with it: 24 hours incubation at high concentration, three cycles of dilution and filtration, concentration down to 0.2 μM. It is filed as biochemical.

As for `CCC(CC)CC1(C(=O)Nc2ccccc2SC(=O)C(C)C)CCCCC1` [Dalcetrapib], the IC50 in test [1] (IC50, main 3CL protease activity, incubated 20 hours with the protease at room temperature before addition of substrate) stood at 14.4 µM; in test [1] (IC50, main 3CL protease activity, incubated one hour with the protease) it was 100 µM. In addition, the “inhibition of protease activity persisting after elution” value in test [2] came to 97.6%.

Take `CCC(CC)CC1(C(=O)Nc2ccccc2S)CCCCC1` [Dalcetrapib thiol]: the IC50 in test [1] (incubated 20 hours with the protease at room temperature before addition of substrate, read-out: IC50, main 3CL protease activity) was found to be 14.4 ± 3.6 µM; in test [1] (incubated one hour with the protease, read-out: IC50, main 3CL protease activity) it was 100 ± 3.6 µM.

What is called IC50 is the concentration that inhibits the measured activity by half.

The values are drawn from US20210338626A1, “METHODS FOR TREATING OR PREVENTING A VIRAL INFECTION OR INHIBITING VIRAL REPLICATION” (Dalcor Pharma UK Ltd., Leatherhead, Zug Branch, priority 2020, published 2021).
